Measured values reported in the RNAGym collection of RNA variant scans (doi:10.7554/elife.90254).
Read counts are not given, so values of variants with three or more changes are uncertain.

B1: OR4K15 (parent)
chain: GUUAACGGUCAUAGGCCAUGGAAACUAGGAGCACCAUUUCGCUGCCAGUGAAGAAAUGAACAAAGAAAAUCUGGGCCAGGCAGGCAUCAAAAGAAAUAGUCUUGCGCUCAACCAGAAAGUCUGUAAUCAUUUUAAGGGUA

Variants of: B1
Experiment: self-cleavage, relative activity (ratio to wild type); higher = more cleavage; in vitro, sequencing; the parent is a self-cleaving ribozyme

With U19C A24G U26C A63G U127C as the variant, how does the self-cleavage read?
The self-cleavage was 0.88.

For A22G A54G U100C, which self-cleavage is on record?
The self-cleavage was 2.03.

With U19C U26C U37C A94G as the variant, how does the self-cleavage read?
The self-cleavage was 1.22.

For A22G A59G A67G, which self-cleavage is on record?
Its self-cleavage is 1.32.

Which self-cleavage does the source give for A22G A52C A54U here?
The self-cleavage was 0.88.

Which self-cleavage does the source give for U19C A51G A69G here?
The self-cleavage was 0.57.

With A22G A27G A129U as the variant, how does the self-cleavage read?
The self-cleavage was 0.47.

Which self-cleavage does the source give for A22G A24G A140U here?
The self-cleavage was 1.15.

Which self-cleavage does the source give for A22G A33G A69G here?
Its self-cleavage is 0.8.

With A22G A51G U132G as the variant, how does the self-cleavage read?
Its self-cleavage is 1.73.

For U19A A98G C121U, which self-cleavage is on record?
The self-cleavage was 0.83.

With A22G A68G A92G as the variant, how does the self-cleavage read?
The self-cleavage was 0.47.

Which self-cleavage does the source give for U19A U122C U139A here?
The self-cleavage was 0.8.

With U19A U37C A51G A62G as the variant, how does the self-cleavage read?
Its self-cleavage is 1.17.

Which self-cleavage does the source give for U19A C40A A64G U103C U127C here?
Its self-cleavage is 0.78.

Which self-cleavage does the source give for A22G A56G A114C here?
Its self-cleavage is 0.02.

For A22G A82G U87A A92G, which self-cleavage is on record?
Its self-cleavage is 0.16.

For U19A C35A A47G U57C A67G A111G U122C U131C, which self-cleavage is on record?
Its self-cleavage is 0.01.

Which self-cleavage does the source give for U19G A23G U38A U87A A118G U133G here?
Its self-cleavage is 1.78.

For A22G A68G U103C, which self-cleavage is on record?
Its self-cleavage is 1.4.

Which self-cleavage does the source give for A22C A23G A82U U100C U122C A140C here?
The self-cleavage was 0.36.

For A22G A82G U124C A125G, which self-cleavage is on record?
Its self-cleavage is 0.59.

Which self-cleavage does the source give for U19C A47G A117G here?
The self-cleavage was 1.42.

With A22G A54G A111G U131C as the variant, how does the self-cleavage read?
The self-cleavage was 0.02.

For G20U A129G U132C, which self-cleavage is on record?
The self-cleavage was 1.97.

With U19G U26C A36G A59G A82G A89G A95G C105A A116U as the variant, how does the self-cleavage read?
The self-cleavage was 0.06.

For U19C A24G U43G A60U A94U, which self-cleavage is on record?
The self-cleavage was 1.66.

For G21A A30G U43C, which self-cleavage is on record?
Its self-cleavage is 1.57.

Which self-cleavage does the source give for U19C U87C A110U U122C here?
The self-cleavage was 0.54.

For A22G A24C A129G, which self-cleavage is on record?
Its self-cleavage is 0.57.

Which self-cleavage does the source give for G20A A23G A54G A68U U70C A114G here?
Its self-cleavage is 0.14.

With A22G A59G A82C as the variant, how does the self-cleavage read?
Its self-cleavage is 0.17.

For G20U C34G U122A, which self-cleavage is on record?
The self-cleavage was 0.92.

For U19C A27G A56G A69U A86G A117G, which self-cleavage is on record?
Its self-cleavage is 1.2.

Which self-cleavage does the source give for U19C A69G U87G here?
The self-cleavage was 0.87.

Which self-cleavage does the source give for U19C G20A A24G U57A C105U here?
The self-cleavage was 0.14.

For U19C A54G A68G, which self-cleavage is on record?
The self-cleavage was 1.16.

Which self-cleavage does the source give for U19C A22G U43G A69G C112U here?
Its self-cleavage is 0.07.

Which self-cleavage does the source give for U19C A24G U37C A54G A63G A66U U87C here?
The self-cleavage was 0.87.

Which self-cleavage does the source give for U19C C32U U70C A89U here?
Its self-cleavage is 0.73.

With A22G A62U A68G A69G G79A as the variant, how does the self-cleavage read?
Its self-cleavage is 0.39.

For A22G A86G A90G U102C A118G U130C, which self-cleavage is on record?
Its self-cleavage is 0.76.

Which self-cleavage does the source give for U19C A22G A135U here?
The self-cleavage was 1.13.

With U19C A30G G83A as the variant, how does the self-cleavage read?
The self-cleavage was 1.65.

Which self-cleavage does the source give for U19A U43A A60G here?
The self-cleavage was 1.78.

For A22G A67G A126G, which self-cleavage is on record?
The self-cleavage was 1.5.

For A22G A23G A90G, which self-cleavage is on record?
The self-cleavage was 1.26.

With U19C U49A G53U A90G as the variant, how does the self-cleavage read?
Its self-cleavage is 1.06.

For U19C A116U U120C, which self-cleavage is on record?
The self-cleavage was 0.11.

Which self-cleavage does the source give for U19C U122C A140U here?
The self-cleavage was 1.24.

With A22G A47U U49C A59U U127C as the variant, how does the self-cleavage read?
Its self-cleavage is 0.24.

With U19C A22G A111G as the variant, how does the self-cleavage read?
Its self-cleavage is 0.07.

With U19C A23G G50A A54G A68U U120C U132C as the variant, how does the self-cleavage read?
Its self-cleavage is 0.57.

With U19A U37C G41A U122C as the variant, how does the self-cleavage read?
Its self-cleavage is 0.47.

For A22G A82U A118U, which self-cleavage is on record?
Its self-cleavage is 0.04.

For A22G A52G A66U, which self-cleavage is on record?
Its self-cleavage is 1.4.

For A22G A92G A116G A125G, which self-cleavage is on record?
Its self-cleavage is 0.25.

With A22G A24G U102A U108C as the variant, how does the self-cleavage read?
Its self-cleavage is 0.03.

With U19A U70C A118G as the variant, how does the self-cleavage read?
Its self-cleavage is 0.11.

Which self-cleavage does the source give for G21A U72A A111G here?
The self-cleavage was 0.02.

Which self-cleavage does the source give for U19C A23G A78U A125G A126U here?
Its self-cleavage is 0.06.

Which self-cleavage does the source give for A22G A62G A66G A78G A110U here?
Its self-cleavage is 0.97.

For U19A U87C A135G, which self-cleavage is on record?
Its self-cleavage is 1.8.

With A22G A64G U108C as the variant, how does the self-cleavage read?
Its self-cleavage is 0.

For A22G A67G A78G A95G U103C U122G U130C, which self-cleavage is on record?
Its self-cleavage is 0.13.

Which self-cleavage does the source give for A22G A52G G136A here?
The self-cleavage was 0.95.

With U19C U87C U108C as the variant, how does the self-cleavage read?
The self-cleavage was 0.01.

For U19C A78U A82U U102C U122C A134G, which self-cleavage is on record?
Its self-cleavage is 0.23.

With A22G A52G A56U A59G A60G A89G as the variant, how does the self-cleavage read?
The self-cleavage was 1.11.

With U19C A68G A89G U130C as the variant, how does the self-cleavage read?
The self-cleavage was 1.11.

With A22G A23U A69G A86C C105U A117U as the variant, how does the self-cleavage read?
Its self-cleavage is 0.06.

With A22G A68U U100C as the variant, how does the self-cleavage read?
Its self-cleavage is 2.32.

With G20A U49C U72A A96G U122C as the variant, how does the self-cleavage read?
The self-cleavage was 0.2.

For A22G A54G A68G A69U U72C, which self-cleavage is on record?
The self-cleavage was 0.45.

With U19A A96G U103C as the variant, how does the self-cleavage read?
Its self-cleavage is 1.15.

Which self-cleavage does the source give for G21A U87A A114G G137U here?
The self-cleavage was 0.57.

Which self-cleavage does the source give for A22G A68U A69G G84A here?
The self-cleavage was 0.63.

With U19A U49C U87C as the variant, how does the self-cleavage read?
The self-cleavage was 1.56.

With U19C A52G A62G A64G C113U as the variant, how does the self-cleavage read?
The self-cleavage was 0.03.

For U19C A24G U37C A91G G106A, which self-cleavage is on record?
The self-cleavage was 0.03.

Which self-cleavage does the source give for U19C A66G A78U U120C here?
The self-cleavage was 0.44.

With A22C A55G A62G A94G A116G as the variant, how does the self-cleavage read?
The self-cleavage was 0.28.

For A22G A54G C85U, which self-cleavage is on record?
The self-cleavage was 0.85.

With U19C A92G U103C U131C as the variant, how does the self-cleavage read?
The self-cleavage was 0.57.
